# Reference: PubChem BioAssay AID493208 (National Center for Advancing Translational Sciences (NCATS), 2011)
# In all, about 44,000 compounds went through this assay and about 340 (0.77%) were called active. About 5% were inconclusive and are not listed. Calls follow the shape of the dose curve; as a rule, active = well fitted inhibition curve with a large enough effect; inconclusive = small, poorly fitted or top-dose-only effect; inactive = flat fitted curve, though single readings scatter. This is one part of the list.
# Experiment: Acumen qHTS Assay for Inhibitors of the mTORC1 Signaling Pathway in MEF (Tsc2-/-, p53-/-) Cells: Sytravon; also: nearly all actives have a fitted effect of over 50% in size;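 as to activity change, negative = inhibition: plate controls were DMSO for no effect and rapamycin for full effect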
# Conditions: phospho-rpS6 immunofluorescence/PI, 24 h; series mostly up to 38.3 µM; activity change, negative = inhibition: at the top concentration
# Summary of the method: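 Read-out: phospho-S6 Alexa-488 intensity over PI intensity per well, scored as % active cells using thresholds from rapamycin (7.5 nM) and DMSO controls. Tsc2-/-, p53-/- MEFs exposed to compound for 24 h; PI cell count recorded as viability.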
# Potency is read from the fitted curve at half-maximal effect.
Structure (SMILES),"activity change, negative = inhibition",Potency
Cc1nc2cc(-c3ccccc3)nn2c(C)c1CCC(=O)NCc1cccc(Cl)c1,inactive: -11.5%,
Cc1ccc(CNC(=O)CN(c2cc(C)cc(C)c2)S(=O)(=O)c2c(C)noc2C)cc1,inactive: -17.2%,
Cc1nc2ccn(Cc3cccs3)c(=O)c2cc1C(=O)N1CCN(c2ccccc2)CC1,inactive: -14.5%,
COC(=O)c1ccccc1NC(=O)c1ccc2c(Cl)c3c(nc2c1)CCCC3,inactive: -0.411%,
CCOC(=O)Cc1ccc(NC(=O)N2CC(C)Oc3ccc(Cl)cc32)cc1 (stereo unspecified),inactive: -0.0602%,
COc1ccc2c(c1)cc1c(=O)n(CC(=O)NCCc3ccccc3)nc(C)n12,inactive: -0.647%,
COc1cc2nc(NCc3ccccc3)n3nc(-c4ccccc4)nc3c2cc1OC,inactive: -0.0113%,
O=C(Nc1cccc(Br)c1)c1cc(-c2ccc3c(c2)OCCO3)on1,inactive: -3.26%,
Cc1ccccc1CNCCSc1nnnn1-c1ccccc1,inactive: 2.63%,
CCOC(=O)N1CCN(Cc2nc3cc(NC(=O)c4ccccc4OC)ccc3n2C(C)C)CC1,inactive: -16.7%,
Cc1ccc2c(c1)N(S(=O)(=O)c1ccc3c(c1)NC(=O)CC(=O)N3)CCO2,inactive: 0.26%,
Cc1ccc2c(c1)N(CC(=O)NCCCN1CCCCC1C)C(=O)c1cccnc1O2 (stereo unspecified),inactive: 0%,
COc1ccc(-n2c(=O)c3ccc(C(=O)NCc4ccc(C)cc4)cc3n(Cc3ccc(C)cc3)c2=O)cc1,inactive: 1.31%,
COc1ccc(CNC(=O)CCc2c(C)c3cc4c(C)coc4cc3oc2=O)cc1,inactive: 0.167%,
COc1ccc(CNC(=O)c2nc(S(=O)(=O)Cc3ccccc3)ncc2Cl)cc1,,active: 20.7 µM
Cc1ccc(-n2nc3c(=O)n(CC(=O)NCc4ccco4)nc(C)c3c2C)cc1,inactive: -2.57%,
Cc1nc2nc(SCC(=O)N(Cc3ccccc3)C(C)C)nn2c(C)c1Cc1ccccc1Cl,inactive: 5.98%,
CSc1ccc(CCNc2ncnc3onc(-c4ccc(Cl)cc4)c23)cc1,inactive: -7.47%,
Cc1cc(C)c2sc(N3CCN(C(=O)C4CC4)CC3)nc2c1,inactive: -5.12%,
CCc1ccc2ncc3c(-c4ccc(C)cc4)nn(CC(=O)Nc4ccc(C)cc4)c3c2c1,inactive: 0%,
Cc1cc(C)c(NC(=O)Cn2c(=O)n(-c3ccc(F)cc3)c(=O)c3c(C)c(C(=O)N(C)C)sc32)c(C)c1,inactive: 3.56%,
COc1ccc(C(=O)c2sc(Nc3cc(Cl)ccc3C)nc2N)cc1OC,inactive: -7.53%,
COC(=O)c1cc2occc2n1Cc1nc(-c2cccc(Br)c2)oc1C,inactive: 0.0695%,
CCOC(=O)c1ccc(NC(=O)CC2C(=O)N(c3ccc(F)cc3)C(=O)N2Cc2ccc(C)cc2)cc1 (stereo unspecified),inactive: 2.79%,

Structure (SMILES),"activity change, negative = inhibition",Potency
COc1ccc(C(=O)Nc2ccccc2-c2nc3ccccc3s2)c(OC)c1,inactive: -14.7%,
CCOc1cc(C2Sc3ccccc3NC3=C2C(=O)c2ccccc23)ccc1O (stereo unspecified),inactive: -1.08%,
CCOC(=O)c1cnc2ccc(Cl)cc2c1Nc1ccc(OCC)cc1,inactive: -19.4%,
CC(C)OCCCNC(=O)CSc1c2c(nc3ccc(Cl)cc13)CCCC2,inactive: -10.2%,
COc1cccc(-c2nc3c(c(SCC(=O)Nc4cc(C)ccc4C)n2)Cc2c(CO)cnc(C)c2O3)c1,inactive: -6.33%,
CC(=O)c1ccc(NC(=O)CCc2nc(-c3ccc(C)cc3)no2)cc1,inactive: 2.89%,
CC(=O)c1ccc(NC(=O)CSc2nc(C3CCCC3)nc3c2c(=O)n(C)c(=O)n3C)cc1,inactive: 3.79%,
Cc1nc(-n2nc(C)c(CCC(C)C)c2C)sc1C(=O)Nc1ccc(Br)cc1,inactive: 1.58%,
COc1ccc(CCNC(=O)CCCn2c(SCC(N)=O)nc3cc4c(cc3c2=O)OCO4)cc1OC,inactive: -0.307%,
COc1ccc(CNC(=O)C2=C(C)C(=O)OC23CCN(C(C)=O)CC3)cc1,inactive: 0.721%,
CSc1ccc(CNC(=O)CCc2c(C)nn(-c3ccc(N4CCCC4)nn3)c2C)cc1,inactive: 3.11%,
CC1CCN(c2oc(-c3ccc(COc4ccc(Cl)cc4)o3)nc2C#N)CC1,inactive: -5.91%,
CCCCOc1ccccc1C(=O)Nc1onc2c1CCCC2,inactive: -5.84%,
CCOc1ccccc1CNC(=O)c1ccc(Cn2c(SCc3ccccc3)nc3cccnc32)cc1,inactive: -12.9%,
Cc1cc(C)c2nc(NC(=O)c3ccc(S(=O)(=O)N4CCC(C)CC4)cc3)sc2c1,inactive: 3.18%,
Fc1ccc(N2CCN(Cc3cccn3-c3nnc(N4CCN(C5CCCCC5)CC4)s3)CC2)cc1,inactive: 0%,
Cc1ccc(NC(=O)C2CCCN(c3cnccn3)C2)c(C)c1 (stereo unspecified),inactive: 0.826%,
CCc1ccccc1NC(=O)c1cc2c(Cl)nc3ccccc3c2s1,inactive: -0.776%,
Cc1cccc(C)c1NC(=O)CCS(=O)(=O)c1cccc2nonc12,inactive: 12.8%,
Cc1c(NC(=O)c2ccc(Br)o2)cccc1-c1nc2ccccc2o1,inactive: 9.43%,
CCOC(=O)c1ccc(NC2=CC(c3ccc(F)cc3)N(c3ccc(C(=O)OCC)cc3)C2=O)cc1 (stereo unspecified),inactive: 1.91%,
CCOc1ccccc1NC(=O)c1cc2c(=O)n(Cc3cccnc3)ccc2nc1C,inactive: -0.233%,
CCCOc1cccc(C(=O)Nc2ccc(-c3cc4ccccc4oc3=O)c(C)c2)c1,inactive: 8.73%,
CCCSc1nc2sc3c(c2c(=O)n1-c1cccc(Br)c1)CC(C)(C)OC3,inactive: -9.63%,

Structure (SMILES),"activity change, negative = inhibition",Potency
Cc1ccccc1Cn1c(SCc2ccc(C(=O)NC3CCCC3)cc2)nc2ccncc21,inactive: -0.246%,
CCOC(=O)c1c(C)[nH]c(C)c1S(=O)(=O)N1CCC(C(=O)Nc2ccc(C)c(Cl)c2)CC1,inactive: -4.98%,
CC(=O)Nc1ccc(Nc2ncnc3c2c(-c2ccccc2)cn3-c2ccc(C)c(Cl)c2)cc1,inactive: 3.93%,
COc1ccccc1N=c1scc(-c2ccc(S(=O)(=O)N3CCCC3)cc2)n1C,inactive: -20%,
Cc1nc2c(c(C)nn2-c2ccccc2)c(C)c1CCC(=O)NCCc1ccc(Cl)cc1,inactive: 3.24%,
COc1cccc(NC(=O)N2CCN(C(=O)c3nsc4ccccc34)CC2)c1,inactive: -4.52%,
COc1ccccc1CNC(=O)CCNS(=O)(=O)c1cccc2nsnc12,inactive: -24.1%,
COc1ccc(NC(=O)N2CCN3CCCCC3C2)cc1OC (stereo unspecified),inactive: 0.368%,
Cc1ccc(Cn2ccn(Cc3cccc(C(F)(F)F)c3)c(=O)c2=O)cc1,inactive: -1.19%,
COc1cccc(NC(=O)CSc2nc3c([nH]c4ccccc43)c(=O)n2-c2cccc(Cl)c2)c1,inactive: -15.6%,
Cc1ccc(-c2ccc(=O)n(CC(=O)Nc3ccc(C(C)C)cc3)n2)cc1,inactive: -9.15%,
CCOC(=O)c1ccc(NC(=O)CSc2nc(C)c(Cc3ccccc3)c(=O)[nH]2)cc1,inactive: 0.524%,
C=CCOc1ccc(C2c3c(oc4ccc(C)cc4c3=O)C(=O)N2CCCN2CCOCC2)cc1 (stereo unspecified),inactive: 4.28%,
COCCNC(=O)CCn1c(=O)c2cc(OC)c(OC)cc2n(CC(=O)Nc2ccccc2OC)c1=O,inactive: -6.06%,
COc1ccccc1NC(=O)c1c(C)cc(C)nc1SCC(=O)Nc1cccc(C)c1,inactive: 0%,
CCc1cccc(CC)c1N(COC)C(=O)Cn1c(C)nc2ccccc21,inactive: -0.507%,
CCN(CC)CCOC(=O)c1ccc(NC(=O)CSc2cc(=O)n(CC)c3ccccc23)cc1,inactive: -1.38%,
Cc1ccc(-n2nc(C)c3c(C)cc(=O)n(CC(=O)NC(C)C)c32)cc1,inactive: -4.49%,
O=C(Nc1ccc(F)c(Cl)c1)C1Cc2ccccc2CN1S(=O)(=O)c1ccc(F)cc1 (stereo unspecified),inactive: -20.1%,
CCc1nn(CC(=O)Nc2ccc(C)cc2C)c(=O)c2cc3sccc3n12,inactive: 0.558%,
Cc1ccc(NC(=O)c2cn(-c3ccccc3)nc2-c2ccccc2)cc1,inactive: -9.48%,
CCCCn1c(SCC(=O)Nc2cccc(OC)c2)nc2ccsc2c1=O,inactive: -3.88%,
COc1cc(OC)c(NC(=O)c2cnn(-c3cccc(Cl)c3C)c2C2CCN(C(=O)OC(C)(C)C)CC2)cc1Cl,inactive: 2.13%,
COc1ccc(-n2cc(-c3ccccc3)c3c(NCc4cccc(Cl)c4)ncnc32)cc1,inactive: -1.98%,

Structure (SMILES),"activity change, negative = inhibition",Potency
O=C(NCc1ccccc1)c1ccc(NC(=O)N2CCSc3ncccc32)cc1,inactive: -8.63%,
Cc1ccc(C2=NN(CC(=O)NC(C)c3ccccc3)C(=O)CC2)cc1 (stereo unspecified),inactive: -1.36%,
COc1ccc(-c2cn3nc(N4CCC(C(=O)NCc5ccc(F)cc5)CC4)sc3n2)cc1,inactive: -4.96%,
CCOC(=O)c1c(NC(=O)COc2cccc(C)c2C)sc2c1CCCCC2,inactive: 2.13%,
CC(C)c1ccc(Nc2c(-c3ccc(N4CCOCC4)cc3)nc3ncccn23)cc1,inactive: 12.1%,
COc1ccc(NC(=O)C2CCC(CNS(=O)(=O)c3csc(C(N)=O)c3)CC2)cc1 (stereo unspecified),inactive: -10.3%,
COc1ccc(-c2onc(C)c2C)cc1S(=O)(=O)Nc1ccc(OC(F)(F)F)cc1,inactive: 0.328%,
CCOC(=O)c1cccc(NC(=O)c2cc(S(=O)(=O)N3CCCC3)cn2C)c1,inactive: 10.2%,
CCOC(=O)CNC(=O)c1cc2c(=O)n(CC)c3ccccc3c2s1,inactive: 0.987%,
CCCOC(=O)c1ccc(NC(=O)Cn2nnc3sc4c(c3c2=O)CCC(C(C)(C)C)C4)cc1 (stereo unspecified),inactive: -3.45%,
Cc1ccc(CNC(=O)CSc2ccc(-c3sc(-c4ccccc4)nc3C)nn2)cc1,inactive: 0.904%,
COC(=O)c1cc2sc(C)cc2n1Cc1ccccc1,inactive: -8.57%,
O=S(=O)(c1ccc(Br)cc1)c1nc(-c2ccco2)oc1SCc1ccccc1F,inactive: -0.0492%,
CC(=O)c1cc(-c2ccc(F)cc2)n(CC(=O)NC2CCCCCC2)c1C,inactive: 0.795%,
CCCOc1ccc(/C=C/C(=O)Nc2sc3c(c2C(=O)OCC)CCC(C)C3)cc1OC (stereo unspecified),inactive: 4.33%,
COc1cccc(CNS(=O)(=O)c2c(C)nc3scc(C)n3c2=O)c1,inactive: 2.38%,
COc1ccc(NC(=O)c2ccco2)cc1NC(=O)C(C)Oc1ccc(Cl)cc1Cl (stereo unspecified),inactive: -18.1%,
CCOc1ccc(CCNC(=O)CN2C(=O)c3cccnc3Oc3ccc(C)cc32)cc1OCC,inactive: -0.002%,
O=C(Nc1cccc(C(F)(F)F)c1)c1cc2nc(-c3ccccc3)cc(C(F)(F)F)n2n1,inactive: -5.05%,
CCOc1ccccc1CNC(=O)CCCn1c(=O)c2cccn2c2cccnc21,inactive: -5.53%,
Clc1ccc(N2CCN(Cc3nnc(-c4ccc5c(c4)OCO5)o3)CC2)cc1,inactive: 2.35%,
COc1ccc(-c2cccc(NS(=O)(=O)c3cccs3)c2)nn1,inactive: -4.01%,
COc1ccc(NC(=O)C2=C(C)Nc3c(C(=O)Nc4ccc(C)cc4)cnn3C2c2cccc(Cl)c2)cc1 (stereo unspecified),inactive: -6.99%,
CCCCN(CC)C(=O)c1c[nH]c2ccc(S(=O)(=O)Nc3cccc(OC)c3)cc2c1=O,inactive: -17.2%,
